Experimental findings from PubChem BioAssay AID485344 (National Center for Advancing Translational Sciences (NCATS), 2010) are described below.

Molecules are shown by their SMILES. About 6,900 (2%) of roughly 340,000 compounds were called active. No stated cut-off is given here; in the data, active means inhibition above about 30%; inactive means below that, where a call was filed. The entries are a selection whose mix differs from that of the whole data set. Where no call is shown, the source filed none.

For this assay, the target named is D(2) dopamine receptor (Homo sapiens) (UniProt P14416). Briefly: HTS Assay for Allosteric Antagonists of the Human D2 Dopamine Receptor: Primary Screen for Antagonists. Further: 0% is about no effect. The settings on record: HEK293 TREx D2 cells, calcium flux, dopamine EC80; at 10 µM; stronger effect = higher value. The essentials: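 Measurement of antagonist activity uses fluorescent calcium dye in inducible HEK293 T-REx D2 cells: 10 s baseline, compound addition with 180 s read, EC80 dopamine addition with a further 180 s read.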
Chain of UniProt P14416 (P14416 whole entry, looked up): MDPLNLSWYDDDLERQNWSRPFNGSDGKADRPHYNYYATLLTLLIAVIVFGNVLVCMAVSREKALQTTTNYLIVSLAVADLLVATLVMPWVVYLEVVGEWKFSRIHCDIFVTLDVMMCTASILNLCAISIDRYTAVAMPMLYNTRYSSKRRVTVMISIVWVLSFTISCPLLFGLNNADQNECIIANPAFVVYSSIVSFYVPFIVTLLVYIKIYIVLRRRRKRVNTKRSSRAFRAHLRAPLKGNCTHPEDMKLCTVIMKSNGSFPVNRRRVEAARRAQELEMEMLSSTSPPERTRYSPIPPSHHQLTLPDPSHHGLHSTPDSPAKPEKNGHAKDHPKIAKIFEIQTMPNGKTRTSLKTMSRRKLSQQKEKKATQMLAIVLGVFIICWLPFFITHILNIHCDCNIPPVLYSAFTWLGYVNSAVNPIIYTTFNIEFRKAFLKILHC
Broadly, the inhibition is the change of the read-out against control, counted positive when it falls. As to `CC1Cn2cc(C(=O)Nc3ccccc3C(F)(F)F)c(=O)c3c(Cl)ccc(c32)O1` (centres undefined), the inhibition is 22%.

In the case of `CC(C)Oc1ccc(C(=O)Nc2nc3c(s2)CC(C(C)(C)C)CC3)cc1` (centres undefined), the inhibition was -3.23%.

Consider `O=C(NCC(c1ccc2c(c1)OCO2)N1CCN(c2ccccc2)CC1)c1ccccc1` (centres undefined), for which the inhibition was -17%.

In the case of `Cc1oc2ncn(CC(C)C)c(=O)c2c1C(=O)N(Cc1ccccc1)C(C)C`, the inhibition is -8.82%.

As for `Cc1nc2nc(C(F)(F)F)[nH]n2c(=O)c1Cc1ccccc1`, the inhibition worked out at 7.9%.

Regarding `CCOC(=O)c1nnn(CC(=O)NC(=O)Nc2ccc(F)cc2)c1C(=O)OCC`, the inhibition was -3.44%.

Regarding `COc1ccc(CNC(=O)c2ccc3c(c2)N(Cc2ccccc2)CCS3)cc1`, the inhibition worked out at 3.48%.

As for `Cc1[nH]n2c(=O)cc(Cc3ccccc3)nc2c1C#N`, the inhibition was active: 41.6%.

As for `Cc1ccccc1C(=O)Nc1ccc2oc(-c3ccc(Cl)c(Cl)c3)nc2c1`, the inhibition is -4.91%.

On to `CCc1cccc(NC(=O)c2cccc3c2C(=O)N(C2CCCCC2)C3)c1`, for which the inhibition was -2.1%.

`O=C(NCC(c1cccnc1)N1CCc2ccccc21)C(=O)Nc1ccccc1F` (centres undefined): the inhibition came out at 28.2%.

As for `COc1nnc(-c2ccc(N3CCCCC3)c(NC(=O)c3ccccc3)c2)c2ccccc12`, the inhibition is -4.97%.

`COc1ccc(Nc2ncnc3c2nc2n3CCCC2)cc1Cl`: the inhibition is -0.366%.

On to `CC(NC(=O)c1cc(-c2ccc(Cl)cc2)on1)c1ccccc1` (centres undefined), for which the inhibition was -10.7%.

Take `CCOC(=O)c1c(C)n(S(=O)(=O)c2ccc(C)cc2)c2ccc(NS(=O)(=O)c3ccc(C)cc3)cc12`: the inhibition is -13.1%.

As to `Cc1cc(Nc2cccc(C(F)(F)F)c2)nc2ccc(NC(=O)c3cccnc3)cc12`, the inhibition stood at 16.3%.

Consider `CCOC(=O)c1c(C)oc2nc(C)nc(N3CCN(c4cccc(C)c4C)CC3)c12`, for which the inhibition was found to be 6.04%.

As for `O=C(O)c1c2c(nc3ccc(S(=O)(=O)N4CCC(C(=O)NCc5ccc(Cl)cc5)CC4)cc13)CCCC2`, the inhibition worked out at 6.93%.

As to `COc1cccc(CNC(=O)Cn2c(SCC(=O)Nc3ccc(C)c(C)c3)nc3ccccc32)c1`, the inhibition is 3.62%.

`CCCCCOc1ccc(NC(=O)Cn2c(-c3cncs3)nc3ccccc32)cc1`: the inhibition was determined as 8.56%.

For `COc1cc(/C=C/c2nc3cc(Cl)ccc3c(=O)n2-c2ccc(C)cc2C)cc(OC)c1OC`, the inhibition is 2.54%.

For `COc1ccc(S(=O)(=O)NCC(c2ccco2)N2CCN(c3ccccc3F)CC2)cc1C` (centres undefined), the inhibition amounted to 18.3%.

For the compound `CSc1ccc(NC(=O)Cn2nnnc2-c2ccccc2F)cc1`, the inhibition worked out at 1.77%.

With `Cc1ccc(NC(=O)C2CCCN(S(=O)(=O)c3c(C)nn(C)c3C)C2)c(C)c1` (centres undefined), the inhibition stood at 4.52%.

As for `CCOc1ccc(C2C(C(N)=O)=C(C)Nc3nc(-c4cccc(Cl)c4)nn32)cc1OC` (centres undefined), the inhibition was 14.9%.

Consider `Cc1cc(C)c(C#N)c(SCS(=O)Cc2ccc(Cl)cc2)n1` (centres undefined), for which the inhibition is active: 36.7%.

`CCOC(=O)N1CCN(Cc2nc3cc(NC(=O)c4ccc([N+](=O)[O-])cc4)ccc3n2C(C)C)CC1`: the inhibition was -18.5%.

With `Cc1cccc(OCCSc2nc3ccccc3n2CC(=O)N2CCOCC2)c1C`, the inhibition was -3.61%.

Regarding `CCOc1ccc(S(=O)(=O)Nc2ccc(OC)c(Cl)c2)c2cccnc12`, the inhibition was determined as 11.9%.

For `O=S(=O)(Nc1cccc(-c2ccc(N3CCCC3)nn2)c1)c1cc(F)ccc1F`, the inhibition was found to be 1.89%.

`Cc1ccccc1C(=O)O/N=C(\c1ccccc1)c1ccccn1`: the inhibition was active: 72.4%.

`COc1ccc(NC(=O)N2CCN(Cc3nc4ccc(C)cc4o3)CC2)cc1OC`: the inhibition was found to be 0.864%.

Regarding `CCCCNC(=O)CN1CCN(c2ccc(NC(=O)c3ccc(OC)cc3)cc2C(=O)O)CC1`, the inhibition was found to be 12%.

For `COc1ccc(-c2c(C#N)c(SCC(=O)Nc3ccc(C)c(C)c3)nc(C)c2C(=O)Nc2ccccc2)cc1OC`, the inhibition is -1.5%.

Regarding `COc1ccc(C)cc1NS(=O)(=O)c1ccc2c(c1)CCCN2C(C)=O`, the inhibition is -0.309%.

For the compound `COCCN1CC(O)=C(c2nc3ccccc3c(=O)[nH]2)C1=N`, the inhibition is active: 38.2%.

`Cc1ccc(S(=O)(=O)NCC(=O)OC(C)C(=O)c2ccccc2)cc1` (centres undefined): the inhibition is active: 30.9%.

In the case of `O=C1C=C(Nc2ccc(Cl)cc2)CC(c2ccc(Cl)cc2)C1` (centres undefined), the inhibition was active: 47.7%.

`Cc1cc(C)n(-c2ccc(C(=O)OCC(=O)N(CC(C)C)C3CCS(=O)(=O)C3)cc2)n1` (centres undefined): the inhibition is active: 51.5%.

Take `COc1ccc(-c2nc(SCC(=O)NCC3CCCO3)c(-c3ccc(C)cc3)[nH]2)cc1OC` (centres undefined): the inhibition was found to be 17.6%.

Turning to `CCOC(=O)Cn1c(=N)n(CCOc2ccc(OC)cc2)c2ccccc21`, the inhibition came to 0.223%.

As to `Cc1cccc(-n2c(=O)c3c(c4cc(C)ccc4n3C)n(CC(=O)Nc3ccc(C)c(C)c3)c2=O)c1`, the inhibition is -1.99%.

In the case of `CC(C)(C)NC(=O)Cn1cc(S(=O)(=O)Cc2ccccc2Cl)c2ccccc21`, the inhibition is -4.14%.

In the case of `COc1ccccc1N1CCN(c2c3c(nc4nncn24)CCC3)CC1`, the inhibition was found to be 12.5%.

Regarding `Cc1cccc(NC(=O)Cn2c(=O)n(Cc3nc(-c4ccccc4)no3)c(=O)c3ccccc32)c1`, the inhibition amounted to 6.1%.

Take `Cc1ccc(Oc2cc([N+](=O)[O-])cc3c2C(=O)Nc2ccccc2O3)cc1`: the inhibition is active: 30.1%.

Turning to `COc1ccc(CNC(=O)C2CCN(C(=O)N3CCOc4ccc(C)cc43)CC2)cc1`, the inhibition is 2.44%.

Regarding `O=C(NCc1ccc(Cl)cc1)c1cc2cccc3c2n1CCS3`, the inhibition was found to be 15.1%.

For `CC1CCCN(C(=O)c2ccc(CSc3nc4ccncc4n3Cc3ccccc3)cc2)C1` (centres undefined), the inhibition amounted to 10.5%.

Consider `CCc1cc(C(=O)N2CCN(c3ccccc3)CC2)no1`, for which the inhibition amounted to 7.76%.

Regarding `COc1cccc(CNC(=O)C2CCCN(c3nn4cc(-c5ccc(C)cc5)nc4s3)C2)c1` (centres undefined), the inhibition is 4.51%.

As to `Cc1ccccc1CN1C(=O)C(O)(c2c[nH]c3ccccc23)c2cc(Cl)ccc21` (centres undefined), the inhibition stood at 0.312%.

Regarding `O=c1c2sc3ccccc3c2n(Cc2cccc(Cl)c2)c(=O)n1Cc1ccc(F)cc1`, the inhibition stood at 1.74%.

On to `Cc1cc(C)c(NC(=O)Cn2nnc3sc4c(c3c2=O)CCC(C(C)(C)C)C4)c(C)c1` (centres undefined), for which the inhibition is -0.19%.

On to `CCCCN1C(C(=O)c2ccccc2)=C(OC(=O)CC)c2ccccc2S1(=O)=O`, for which the inhibition is 7.35%.

Turning to `COc1cc(C2c3c(-c4ccccc4O)n[nH]c3C(=O)N2Cc2ccncc2)cc(OC)c1OC` (centres undefined), the inhibition was 7.49%.

Turning to `O=C(CCCc1nc(-c2ccc(Cl)cc2)no1)NCc1ccco1`, the inhibition was -9.02%.

On to `CC1CCN(S(=O)(=O)c2ccc3c(c2)N(CC(=O)N(C)Cc2ccccc2)C(=O)CO3)CC1`, for which the inhibition is 1.45%.

With `CCN(CC)c1cc(NC2CCCCC2)c2c3c(onc13)-c1ccccc1C2=O`, the inhibition came out at 6.95%.

Take `Cn1cnc(S(=O)(=O)N2CCC(C(=O)Nc3ccc(OC(F)(F)F)cc3)CC2)c1`: the inhibition is -5.07%.

`CCCCN(CC)CCCNC(=O)c1ccc2c(c1)N(Cc1ccc(C)cc1)C(=O)c1ccccc1S2`: the inhibition is -19%.

Take `CCOc1ccc(C(=O)c2cn(CC(=O)Nc3ccc(C)c(Cl)c3)c3ccc(OCC)cc3c2=O)cc1`: the inhibition came out at 8.41%.

As for `COc1cc(NC(=O)COCc2cc(-c3ccc4c(c3)OCO4)on2)c(OC)cc1Cl`, the inhibition worked out at 10.6%.

On to `CC(=O)c1ccc(NC(=O)Cn2c(=O)nc(-c3ccccc3)c3ccccc32)cc1`, for which the inhibition was 6.32%.

Consider `CCCCC(=O)OCc1cc(=O)n2nc(C3CC3)sc2n1`, for which the inhibition is -11.4%.

Take `O=C(NC1(C(F)(F)F)N=C(c2ccccc2)N(Cc2ccccc2)C1=O)c1ccc(F)cc1` (centres undefined): the inhibition amounted to 7.59%.

Regarding `CCOc1ccc(CCNC(=O)c2cc3n(n2)CCCN(Cc2ccc(C)cc2)C3=O)cc1OCC`, the inhibition was -5.16%.

Consider `Cc1cc(-c2ccc(C)c(S(=O)(=O)Nc3ccc(C)c(N(C)C)c3)c2)on1`, for which the inhibition stood at 13.6%.

For the compound `Cc1nnc(N2CCCC(C(=O)Nc3cc(F)ccc3F)C2)c2nn(-c3ccccc3)c(C)c12` (centres undefined), the inhibition was -25.2%.

`CC1CCN(c2nc3ccccc3nc2SCC(=O)Nc2ccccc2C(C)C)CC1`: the inhibition came to 1.69%.

As to `CCCN1CCN(c2ncnc3sc(C(=O)Nc4ccc(OC(F)(F)F)cc4)c(C)c23)CC1`, the inhibition is -6.72%.

With `CC(C)NC(=O)C1=CC(c2ccc3c(c2)OCO3)=NS(=O)(=O)N1C`, the inhibition was 9.11%.

For `COc1ccccc1CNC(=O)c1cc2cccc3c2n1CCS3`, the inhibition is 2.42%.

As for `Cc1sc(NC(=O)C2c3ccccc3Oc3ccccc32)c(C(=O)OC(C)C)c1C`, the inhibition was -2.53%.

As to `COc1ccc(-c2nc(CSCC(=O)NCCc3ccc(OC)c(OC)c3)c(C)o2)cc1`, the inhibition was -14.2%.

Turning to `CCc1nn2c(=O)c(S(=O)(=O)Nc3ccc(C)cc3C)c(C)nc2s1`, the inhibition is -13.7%.

With `Cc1ccc(S(=O)(=O)c2nnn3c2nc(N(C)Cc2ccccc2)c2cc(Cl)ccc23)cc1C`, the inhibition is -2.63%.

Turning to `O=C(Nc1cc(Cl)ccc1O)c1cc(-c2ccc3c(c2)OCO3)on1`, the inhibition came out at 14.8%.

Consider `COc1ccc(C2C(C(=O)Nc3cccnc3)=C(C)Nc3nc(-c4ccc(OC)c(OC)c4)nn32)cc1` (centres undefined), for which the inhibition was -1.71%.

Turning to `CCOC(=O)c1c(C)[nH]c(CCC(=O)NCc2cc(Br)ccc2OC)c1C`, the inhibition was found to be 7.4%.

Take `Cc1c(C(=O)N2CCCC2)oc2c1-c1nn(CC(=O)NCc3ccccc3F)cc1CC2`: the inhibition is -7.48%.

In the case of `COc1ccc(CNC(=O)CCS(=O)(=O)c2cc3c4c(c2)CCN4C(=O)CC3)cc1OC`, the inhibition is -2.44%.

`COc1ccc(NC(=O)c2ccc(CN3CCN(c4ccccc4)CC3)cc2)cc1`: the inhibition was active: 82.4%.

For the compound `COc1ccc(OC)c(C(=O)NC(CC(N)=O)c2ccc(N3CCN(c4ccccn4)CC3)c([N+](=O)[O-])c2)c1` (centres undefined), the inhibition is active: 31.7%.

With `Cc1cc(Cl)ccc1NC(=O)CCS(=O)(=O)c1ccc2c(c1)CC(C)N2C(=O)C1CC1` (centres undefined), the inhibition is -0.501%.

On to `CCOc1ccccc1N(CC)C(=O)Cn1ncc2c1-c1ccccc1OC2`, for which the inhibition was found to be 7.49%.

Consider `CCOc1ccc(NC(=O)CSc2nc(-c3ccccc3)c3cc(OCC)ccc3n2)cc1`, for which the inhibition was found to be 8.74%.

`COc1ccc(CNC(=O)c2cnc3sc4cc(OC)ccc4n3c2=O)cc1`: the inhibition turned out to be 10.1%.

In the case of `CCN1CCN(c2nc(Nc3ccccc3)nc(N)c2[N+](=O)[O-])CC1`, the inhibition was active: 84.2%.

On to `CCC(CC)C(=O)N1CCc2cc(OC)c(OC)cc2C1COc1ccc2c(C)cc(=O)oc2c1` (centres undefined), for which the inhibition was -5.72%.

As to `CCOc1ccc2nc(N(Cc3cccnc3)C(=O)c3ccco3)sc2c1`, the inhibition is 13.2%.

Turning to `O=C(c1cc(S(=O)(=O)N2CCCC2)c[nH]1)N1CCN(c2cccc(Cl)c2)CC1`, the inhibition is 3.68%.

Consider `c1ccc(Nc2c(-c3ccccc3)nc3ncccn23)cc1`, for which the inhibition is -6.71%.

Consider `CCN1C(=O)c2ccccc2Sc2ccc(NC(=O)Cc3ccc(OC)c(OC)c3)cc21`, for which the inhibition was 25.7%.
